# ± gives the standard deviation of the averaged measurements. The list shows a part of the results.
# B1: VDAC2; numbered along this chain (parent)
# chain: MATHGQTCARPMCIPPSYADLGKAARDIFNKGFGFGLVKLDVKTKSCSGVEFSTSGSSNTDTGKVTGTLETKYKWCEYGLTFTEKWNTDNTLGTEIAIEDQICQGLKLTFDTTFSPNTGKKSGKIKSSYKRECINLGCDVDFDFAGPAIHGSAVFGYEGWLAGYQMTFDSAKSKLTRNNFAVGYRTGDFQLHTNVNDGTEFGGSIYQKVCEDLDTSVNLAWTSGTNCTRFGIAAKYQLDPTASISAKVNNSSLIGVGYTQTLRPGVKLTLSALVDGKSINAGGHKVGLALELEA
# Variants of: B1
# Experiment: log2 fold difference of barcode abundance, GFP-BAK-high vs GFP-BAK-low sorted fraction (log2 ratio); higher = VDAC2 variant stabilises more GFP-BAK at mitochondria
# Conditions: with BAK1 (mouse, GFP-tagged), Mcl1-/- Bax-/- Bak-/- Vdac2-/- MEF + GFP-mBAK
# Method: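 Deep mutational scan of human VDAC2 (FLAG-tagged) with single amino acid substitutions at positions Q165–F180 (β10–11 loop), each barcoded clone expressed by retrovirus in Mcl1/Bax/Bak/Vdac2-deficient MEFs that also express GFP-tagged mouse BAK. Cells were sorted into GFP-high and GFP-low fractions and barcodes counted by Illumina sequencing. The score is log2(CPM) in GFP-BAK-high minus log2(CPM) in GFP-BAK-low, per barcode; barcodes of the same variant are averaged. It reports BAK recruitment and stabilisation at the mitochondrial outer membrane.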
# 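Also: sorting relied on GFP fluorescence, which stays low in these cells lacking VDAC2 and climbs sharply once wild-type VDAC2 is expressed.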
row,Variant,log2 fold difference
1,MATHGQTCARPMCIPPSYADLGKAARDIFNKGFGFGLVKLDVKTKSCSGVEFSTSGSSNTDTGKVTGTLETKYKWCEYGLTFTEKWNTDNTLGTEIAIEDQICQGLKLTFDTTFSPNTGKKSGKIKSSYKRECINLGCDVDFDFAGPAIHGSAVFGYEGWLAGYQMTFDSAKSKCTRNNFAVGYRTGDFQLHTNVNDGTEFGGSIYQKVCEDLDTSVNLAWTSGTNCTRFGIAAKYQLDPTASISAKVNNSSLIGVGYTQTLRPGVKLTLSALVDGKSINAGGHKVGLALELEA [L175C],0.453 ± 1
2,MATHGQTCARPMCIPPSYADLGKAARDIFNKGFGFGLVKLDVKTKSCSGVEFSTSGSSNTDTGKVTGTLETKYKWCEYGLTFTEKWNTDNTLGTEIAIEDQICQGLKLTFDTTFSPNTGKKSGKIKSSYKRECINLGCDVDFDFAGPAIHGSAVFGYEGWLAGYQGTFDSAKSKLTRNNFAVGYRTGDFQLHTNVNDGTEFGGSIYQKVCEDLDTSVNLAWTSGTNCTRFGIAAKYQLDPTASISAKVNNSSLIGVGYTQTLRPGVKLTLSALVDGKSINAGGHKVGLALELEA [M166G],-0.0276 ± 0.92
3,MATHGQTCARPMCIPPSYADLGKAARDIFNKGFGFGLVKLDVKTKSCSGVEFSTSGSSNTDTGKVTGTLETKYKWCEYGLTFTEKWNTDNTLGTEIAIEDQICQGLKLTFDTTFSPNTGKKSGKIKSSYKRECINLGCDVDFDFAGPAIHGSAVFGYEGWLAGYQMTFDSWKSKLTRNNFAVGYRTGDFQLHTNVNDGTEFGGSIYQKVCEDLDTSVNLAWTSGTNCTRFGIAAKYQLDPTASISAKVNNSSLIGVGYTQTLRPGVKLTLSALVDGKSINAGGHKVGLALELEA [A171W],-1.21 ± 0.6
4,MATHGQTCARPMCIPPSYADLGKAARDIFNKGFGFGLVKLDVKTKSCSGVEFSTSGSSNTDTGKVTGTLETKYKWCEYGLTFTEKWNTDNTLGTEIAIEDQICQGLKLTFDTTFSPNTGKKSGKIKSSYKRECINLGCDVDFDFAGPAIHGSAVFGYEGWLAGYQMTFDSAKQKLTRNNFAVGYRTGDFQLHTNVNDGTEFGGSIYQKVCEDLDTSVNLAWTSGTNCTRFGIAAKYQLDPTASISAKVNNSSLIGVGYTQTLRPGVKLTLSALVDGKSINAGGHKVGLALELEA [S173Q],0.497 ± 1.7
5,MATHGQTCARPMCIPPSYADLGKAARDIFNKGFGFGLVKLDVKTKSCSGVEFSTSGSSNTDTGKVTGTLETKYKWCEYGLTFTEKWNTDNTLGTEIAIEDQICQGLKLTFDTTFSPNTGKKSGKIKSSYKRECINLGCDVDFDFAGPAIHGSAVFGYEGWLAGYQMTFDSAKMKLTRNNFAVGYRTGDFQLHTNVNDGTEFGGSIYQKVCEDLDTSVNLAWTSGTNCTRFGIAAKYQLDPTASISAKVNNSSLIGVGYTQTLRPGVKLTLSALVDGKSINAGGHKVGLALELEA [S173M],0.0867 ± 1.6
6,MATHGQTCARPMCIPPSYADLGKAARDIFNKGFGFGLVKLDVKTKSCSGVEFSTSGSSNTDTGKVTGTLETKYKWCEYGLTFTEKWNTDNTLGTEIAIEDQICQGLKLTFDTTFSPNTGKKSGKIKSSYKRECINLGCDVDFDFAGPAIHGSAVFGYEGWLAGYPMTFDSAKSKLTRNNFAVGYRTGDFQLHTNVNDGTEFGGSIYQKVCEDLDTSVNLAWTSGTNCTRFGIAAKYQLDPTASISAKVNNSSLIGVGYTQTLRPGVKLTLSALVDGKSINAGGHKVGLALELEA [Q165P],-0.613 ± 1.4
7,MATHGQTCARPMCIPPSYADLGKAARDIFNKGFGFGLVKLDVKTKSCSGVEFSTSGSSNTDTGKVTGTLETKYKWCEYGLTFTEKWNTDNTLGTEIAIEDQICQGLKLTFDTTFSPNTGKKSGKIKSSYKRECINLGCDVDFDFAGPAIHGSAVFGYEGWLAGYQMTFDSAKSKLTRNFFAVGYRTGDFQLHTNVNDGTEFGGSIYQKVCEDLDTSVNLAWTSGTNCTRFGIAAKYQLDPTASISAKVNNSSLIGVGYTQTLRPGVKLTLSALVDGKSINAGGHKVGLALELEA [N179F],-0.42 ± 1.2
8,MATHGQTCARPMCIPPSYADLGKAARDIFNKGFGFGLVKLDVKTKSCSGVEFSTSGSSNTDTGKVTGTLETKYKWCEYGLTFTEKWNTDNTLGTEIAIEDQICQGLKLTFDTTFSPNTGKKSGKIKSSYKRECINLGCDVDFDFAGPAIHGSAVFGYEGWLAGYQMTFDSAKSRLTRNNFAVGYRTGDFQLHTNVNDGTEFGGSIYQKVCEDLDTSVNLAWTSGTNCTRFGIAAKYQLDPTASISAKVNNSSLIGVGYTQTLRPGVKLTLSALVDGKSINAGGHKVGLALELEA [K174R],0.0885 ± 0.94
9,MATHGQTCARPMCIPPSYADLGKAARDIFNKGFGFGLVKLDVKTKSCSGVEFSTSGSSNTDTGKVTGTLETKYKWCEYGLTFTEKWNTDNTLGTEIAIEDQICQGLKLTFDTTFSPNTGKKSGKIKSSYKRECINLGCDVDFDFAGPAIHGSAVFGYEGWLAGYQMTFDSAKSKLTRNNGAVGYRTGDFQLHTNVNDGTEFGGSIYQKVCEDLDTSVNLAWTSGTNCTRFGIAAKYQLDPTASISAKVNNSSLIGVGYTQTLRPGVKLTLSALVDGKSINAGGHKVGLALELEA [F180G],-0.09 ± 0.96
10,MATHGQTCARPMCIPPSYADLGKAARDIFNKGFGFGLVKLDVKTKSCSGVEFSTSGSSNTDTGKVTGTLETKYKWCEYGLTFTEKWNTDNTLGTEIAIEDQICQGLKLTFDTTFSPNTGKKSGKIKSSYKRECINLGCDVDFDFAGPAIHGSAVFGYEGWLAGYQMTFDSAKSKHTRNNFAVGYRTGDFQLHTNVNDGTEFGGSIYQKVCEDLDTSVNLAWTSGTNCTRFGIAAKYQLDPTASISAKVNNSSLIGVGYTQTLRPGVKLTLSALVDGKSINAGGHKVGLALELEA [L175H],0.0297 ± 0.92

# From the supplement of paper PMC11098506
